Experimental findings from the supplement of paper PMC10126150 are described below.

In the data set the test system is ATP. Nature of the data set: switch fluorescence ratio, 500 uM ATP over buffer (Cy3 cluster intensity, sum of 5 cycles each) (fold (ratio)); higher = stronger signal-on switching upon ATP binding; sequences stand for … in TCGTCGGCAGCGTCAGATGTGTATAAGAGACAGTTTTTTTTTTTTTTTTTTTTTTTTT…TC. The conditions noted are these: aptamer strand: ATP DNA aptamer (quencher-CACCTGGGGGAGTATTGCGGAGGAAGG + anchor), 100 nM annealed; ATP concentration: 500 uM; one replicate. The method in brief:
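Clusters carrying Cy3-labelled switching strands on a modified Illumina MiSeq flow-cell were annealed to 100 nM quencher-labelled ATP aptamer and imaged in selection buffer. They were imaged again after 15 min with 500 uM ATP at 22 °C, over five buffer/ATP cycles with NaOH stripping and re-annealing in between. For each cluster, the fluorescence ratio is the summed Cy3 intensity of the target cycles divided by that of the buffer cycles, averaged per switch-domain sequence. Clusters outside 100-1000 RFU were left out.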

Sequences with one replicate were seen in a single cluster, so their values are uncertain.
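Note: ATP exposure 15 min at 22 °C before imaging.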

Regarding TATGTGCACT, the switch fluorescence ratio was 0.922.
The value for GACTTACGG was 1.03; that for CATAACACAG was 1.
To ACGTTGCGGG belongs 0.995; to AGATCGCCAT, 1.05; to TAAGGCGCGA, 0.99.
To TGTCGTACAC belongs 1.05.
Consider ATGCGGATTG, for which the switch fluorescence ratio was 1.01.
For CGGTTTGTAG, the switch fluorescence ratio was determined as 1.
The value for ACGGCGGTGA was 1.01; that for AGTTAGTGCT was 1.
To ATGGATGGCA belongs 0.982; to ACCGTGACCG, 1.06.
To AATTCTTAGC belongs 0.916.
Take ATACCACTGG: the switch fluorescence ratio was found to be 1.08.
The value for TGAGACACTG was 1.12.
On to AGCCGCGCTT, for which the switch fluorescence ratio came out at 0.982.
To ACGGTAACCA belongs 1.26; to TGCAACTGAT, 1.02.
On to TCCACTTTAG, for which the switch fluorescence ratio came to 1.03.
The value for ACCTAGGGTA was 1.04; that for TCACGACCGA was 1.18.
The value for TAGAAGTGAA was 0.944.
With TTCGAATAGA, the switch fluorescence ratio is 1.02.
GGTGACAGTA: the switch fluorescence ratio worked out at 1.01.
The value for AAGTATAGGC was 1.07; that for TCGCTATATC was 4.91; that for CATTATGTCG was 1.14.
Turning to AATCACGTCG, the switch fluorescence ratio was found to be 0.991.
To TTCTTGGTGG belongs 1.03; to TCCAGAGCAA, 0.97; to CGTAATATTC, 3.08.
The value for TTTTATTAAG was 1.01.
Regarding ATTTCGCGTA, the switch fluorescence ratio turned out to be 1.01.
To ATCTCCGTA belongs 1.1; to ATAGGTCTAC, 0.965; to GGGTGATCGC, 0.98.
The value for ATGTTGTGAT was 1.01; that for CTGTGATCGA was 1.01; that for TCATTGCGGT was 1.
To TGACGTGGGG belongs 1; to ACTGACCTTC, 1.77; to CTACGCGGCT, 1.32.
As to CACCCGCGCG, the switch fluorescence ratio came out at 1.01.
The value for GAATCACTAC was 1.1.
Regarding TTGAGTTGTA, the switch fluorescence ratio came to 1.02.
On to ACGCTGATTG, for which the switch fluorescence ratio amounted to 1.03.
To CCTGGGAAAG belongs 0.997; to ATGGGAATGT, 0.996; to AGCCGACGCG, 1.05.
To TTTACCAATG belongs 0.978.
To GGGGTGCAGG belongs 0.972; to CTGTGAGGGA, 0.998.
In the case of TCATACTAGT, the switch fluorescence ratio was 1.01.
As to TCTTGGAC, the switch fluorescence ratio is 1.
Consider TTAAAGTATT, for which the switch fluorescence ratio was 1.05.
As to TAAGTGGCGC, the switch fluorescence ratio stood at 1.04.
Regarding CGTATTGAGT, the switch fluorescence ratio stood at 0.982.
To CTATCACGAT belongs 1.01; to CAATTACTT, 1.09.
CAAATGGCG: the switch fluorescence ratio was determined as 1.01.
With TAGGGCCCCA, the switch fluorescence ratio came to 1.03.
To TCATTGCGAC belongs 1.08.
The value for AGTGTTACTT was 1.03.
To GGCTGCTCTA belongs 0.981; to AACTCGGCGT, 0.994.
For AAGTCATAGG, the switch fluorescence ratio was 1.01.
